# What was measured:
# RIP1 = molecular target: T1, RIP1 (Homo sapiens, UniProt Q13546); experiment: KINOMEscan binding assay, RIP1; settings: equilibrium dissociation constant, class symbols
# T1 construct: purchased DiscoverX (KINOMEscan service); host or cells: E. coli BL21-derived (T7 phage) or HEK293
# T1 sequence (Q13546 1-671): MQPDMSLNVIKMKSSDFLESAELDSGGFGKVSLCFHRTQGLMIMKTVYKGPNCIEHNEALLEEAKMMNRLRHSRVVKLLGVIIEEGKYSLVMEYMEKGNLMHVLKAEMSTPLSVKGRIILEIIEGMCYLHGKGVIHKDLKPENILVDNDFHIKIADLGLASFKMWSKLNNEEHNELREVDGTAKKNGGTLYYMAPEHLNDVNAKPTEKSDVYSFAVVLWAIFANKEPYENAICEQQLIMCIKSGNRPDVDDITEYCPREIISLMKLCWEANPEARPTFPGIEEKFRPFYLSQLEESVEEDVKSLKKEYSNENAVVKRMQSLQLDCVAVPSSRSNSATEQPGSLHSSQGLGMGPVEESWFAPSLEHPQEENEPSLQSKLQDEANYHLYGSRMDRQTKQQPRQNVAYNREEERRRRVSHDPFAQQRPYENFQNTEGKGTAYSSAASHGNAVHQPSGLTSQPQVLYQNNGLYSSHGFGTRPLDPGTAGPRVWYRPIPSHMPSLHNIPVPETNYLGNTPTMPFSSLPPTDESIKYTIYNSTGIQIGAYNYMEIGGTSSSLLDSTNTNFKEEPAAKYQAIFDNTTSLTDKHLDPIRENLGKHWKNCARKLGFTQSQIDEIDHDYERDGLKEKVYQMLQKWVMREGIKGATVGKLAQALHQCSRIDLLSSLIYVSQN
# MLKL (full length) = molecular target: T2, MLKL (full length) (Homo sapiens, UniProt Q8NB16); experiment: KINOMEscan binding assay, MLKL; settings: equilibrium dissociation constant, class symbols
# T2 construct: purchased DiscoverX (KINOMEscan service); host or cells: E. coli BL21-derived (T7 phage) or HEK293
# T2 sequence (Q8NB16 1-471): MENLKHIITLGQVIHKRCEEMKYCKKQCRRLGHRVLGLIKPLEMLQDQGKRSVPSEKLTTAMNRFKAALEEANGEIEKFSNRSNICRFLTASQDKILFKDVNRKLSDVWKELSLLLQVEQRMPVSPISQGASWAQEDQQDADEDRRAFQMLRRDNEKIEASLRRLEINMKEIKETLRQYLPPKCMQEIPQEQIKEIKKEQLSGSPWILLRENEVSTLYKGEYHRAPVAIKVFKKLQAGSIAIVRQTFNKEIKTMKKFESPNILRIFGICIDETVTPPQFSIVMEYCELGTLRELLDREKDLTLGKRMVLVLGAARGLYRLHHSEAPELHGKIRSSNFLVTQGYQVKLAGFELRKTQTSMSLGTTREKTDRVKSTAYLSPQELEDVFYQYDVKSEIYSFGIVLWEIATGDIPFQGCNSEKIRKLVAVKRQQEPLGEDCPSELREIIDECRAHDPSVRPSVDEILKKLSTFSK
# Source text: The Hill Slope was set to −1.
# U937 cells = experiment: Counter screen: cell viability without the TSQ cocktail (CelltiterGlo); set-up: species or system human; settings: Homo sapiens, U-937, cell viability by CelltiterGlo, read-out: Off-target effect (IC50 cell-based assay)
# Method: Counter screen: In parallel, all compounds were tested for their ability to affect cell viability. The same U937 cells were treated with compound in DMSO without the TSQ cocktail. This counter screen enabled evaluation of off-target effects. In this case, cell viability was measured by CelltiterGlo.
# [1] = system: U937 human histiocytic leukemia cell line; experiment: Inhibition of TSQ induced necroptosis, 384 well plate format (CellTitre-Glo); settings: Homo sapiens, U-937; U937 cells, TSQ cocktail (TNF, Smac mimetic, Q-VD-OPh), CelltiterGlo; read-out: Inhibition of TSQ-induced necroptosis (IC50 cell-based assay)
# Summary of the method: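 Necroptosis was induced in U937 cells (20,000/well) by hTNF-Fc 100 ng/ml, Smac mimetic 500 nM and Q-VD-OPh 10 μM for 48 h at 37 °C. Compounds were run as a 10-point 1:3 series from 36 μM in 0.3% DMSO. Viability was read by CellTiter-Glo luminescence (DMSO = 100%, DMSO+TSQ = 0%), and IC50 was taken from a 4-parameter fit.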
SMILES,Kd (RIP1),Kd (MLKL (full length)),IC50 (U937 cells),IC50 [1]
"NC(=O)c1c(-c2ccc(NS(=O)(=O)C(F)F)c(OCc3ccc(F)cc3)c2)n[nH]c1Nc1cnccn1 [Compound 202, 3-(4-((difluoromethyl)sulfonamido)-3-((4-fluorobenzyl)oxy)phenyl)-5-(pyrazin-2-ylamino)-1H-pyrazole-4-carboxamide]",> 30000 nM,< 10 nM,> 30000 nM,10 to 1000 nM
"C[C@H](Oc1cc(-c2n[nH]c(Nc3cnccn3)c2C(N)=O)ccc1NS(=O)(=O)C(F)F)c1ccc(F)cc1 [Compound 223, 3-[4-(difluoromethanesulfonamido)-3-[(1S)-1-(4-fluorophenyl)ethoxy]phenyl]-5-[(pyrazin-2-yl)amino]-1H-pyrazole-4-carboxamide]",> 30000 nM,< 10 nM,> 30000 nM,< 10 nM
"NC(=O)c1c(-c2ccc(NS(=O)(=O)CC(F)(F)F)c(OCc3ccc(Cl)cc3)c2)n[nH]c1Nc1cnc(C(F)(F)F)cn1 [Compound 234, 3-{3-[(4-chlorophenyl)methoxy]-4-(2,2,2-trifluoroethanesulfonamido)phenyl}-5-{[5-(trifluoromethyl)pyrazin-2-yl]amino}-1H-pyrazole-4-carboxamide]",> 30000 nM,< 10 nM,1000 to 30000 nM,10 to 1000 nM
"Cc1cnc(Nc2[nH]nc(-c3ccc(NS(=O)(=O)C(F)F)c(O[C@@H](C)c4ccc(F)cc4)c3)c2C(N)=O)cn1 [Compound 245, 3-[4-(difluoromethanesulfonamido)-3-[(1S)-1-(4-fluorophenyl)ethoxy]phenyl]-5-[(5-methylpyrazin-2-yl)amino]-1H-pyrazole-4-carboxamide]",> 30000 nM,< 10 nM,> 30000 nM,< 10 nM
"C[C@H](Oc1cc(-c2n[nH]c(Nc3cnccn3)c2C(N)=O)ccc1NS(=O)(=O)CC(F)(F)F)c1ccc(Cl)cc1 [Compound 259, 3-{3-[(1S)-1-(4-chlorophenyl)ethoxy]-4-(2,2,2-trifluoroethane-sulfonamido)phenyl}-5-[(pyrazin-2-yl)amino]-1H-pyrazole-4-carboxamide]",> 30000 nM,< 10 nM,> 30000 nM,> 30000 nM
"Cc1cnc(Nc2[nH]nc(-c3ccc(NS(=O)(=O)CC(F)(F)F)c(O[C@@H](C)c4ccc(F)cc4)c3)c2C(N)=O)cn1 [Compound 264, 3-{3-[(1S)-1-(4-fluorophenyl)ethoxy]-4-(2,2,2-trifluoroethanesulfonamido)phenyl}-5-[(5-methylpyrazin-2-yl)amino]-1H-pyrazole-4-carboxamide]",> 30000 nM,< 10 nM,> 30000 nM,< 10 nM

# Continued, in another order:
Kd (RIP1),Kd (MLKL (full length)),SMILES,IC50 (U937 cells),IC50 [1]
> 30000 nM,< 10 nM,"CCS(=O)(=O)Nc1ccc(-c2n[nH]c(Nc3cnccn3)c2C(N)=O)cc1OCc1ccc(Cl)c(F)c1 [Compound 166, 3-(3-((4-chloro-3-fluorobenzyl)oxy)-4-(ethylsulfonamido)phenyl)-5-(pyrazin-2-ylamino)-1H-pyrazole-4-carboxamide]",> 30000 nM,10 to 1000 nM
> 30000 nM,< 10 nM,"NC(=O)c1c(-c2ccc(NS(=O)(=O)CC(F)(F)F)c(OCc3ccc(F)cc3)c2)n[nH]c1Nc1cnccn1 [Compound 170, 3-(3-((4-fluorobenzyl)oxy)-4-((2,2,2-trifluoroethyl)sulfonamido)phenyl)-5-(pyrazin-2-ylamino)-1H-pyrazole-4-carboxamide]",> 30000 nM,10 to 1000 nM
> 30000 nM,< 10 nM,"CCS(=O)(=O)Nc1ccc(-c2n[nH]c(Nc3cnccn3)c2C(N)=O)c(OCc2ccc(Cl)cc2)c1 [Compound 198, 3-(2-((4-chlorobenzyl)oxy)-4-(ethylsulfonamido)phenyl)-5-(pyrazin-2-ylamino)-1H-pyrazole-4-carboxamide]",> 30000 nM,1000 to 30000 nM
